Laboratory results published in PubChem BioAssay AID488969 (Vanderbilt High Throughput Screening Facility, 2010).
Whole data set: some 110,000 compounds, median “z-score” near -0.1, cut for the highest 2% near 2. The list shows a part of the results. Calls of active or inactive are those of the source.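 How the source made its calls: active means z-score in the third read window above 3 or below -3; inactive means the rest.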

These compounds were tested against Metabotropic glutamate receptor 8 (Rattus norvegicus) (UniProt P70579) (assay: mGluR8 Gi/Go-coupled signaling modulation – cell-based, rat, thallium flux, HTS, primary screen (AID 488969)). Settings: HEK293 rat mGluR8, GIRK (G protein-gated inwardly rectifying potassium channel) thallium flux, FluoZin2; at 10 µM; stronger effect = higher value; submaximal glutamate (EC20) added with thallium.
Chain of UniProt P70579 (P70579 whole entry, looked up): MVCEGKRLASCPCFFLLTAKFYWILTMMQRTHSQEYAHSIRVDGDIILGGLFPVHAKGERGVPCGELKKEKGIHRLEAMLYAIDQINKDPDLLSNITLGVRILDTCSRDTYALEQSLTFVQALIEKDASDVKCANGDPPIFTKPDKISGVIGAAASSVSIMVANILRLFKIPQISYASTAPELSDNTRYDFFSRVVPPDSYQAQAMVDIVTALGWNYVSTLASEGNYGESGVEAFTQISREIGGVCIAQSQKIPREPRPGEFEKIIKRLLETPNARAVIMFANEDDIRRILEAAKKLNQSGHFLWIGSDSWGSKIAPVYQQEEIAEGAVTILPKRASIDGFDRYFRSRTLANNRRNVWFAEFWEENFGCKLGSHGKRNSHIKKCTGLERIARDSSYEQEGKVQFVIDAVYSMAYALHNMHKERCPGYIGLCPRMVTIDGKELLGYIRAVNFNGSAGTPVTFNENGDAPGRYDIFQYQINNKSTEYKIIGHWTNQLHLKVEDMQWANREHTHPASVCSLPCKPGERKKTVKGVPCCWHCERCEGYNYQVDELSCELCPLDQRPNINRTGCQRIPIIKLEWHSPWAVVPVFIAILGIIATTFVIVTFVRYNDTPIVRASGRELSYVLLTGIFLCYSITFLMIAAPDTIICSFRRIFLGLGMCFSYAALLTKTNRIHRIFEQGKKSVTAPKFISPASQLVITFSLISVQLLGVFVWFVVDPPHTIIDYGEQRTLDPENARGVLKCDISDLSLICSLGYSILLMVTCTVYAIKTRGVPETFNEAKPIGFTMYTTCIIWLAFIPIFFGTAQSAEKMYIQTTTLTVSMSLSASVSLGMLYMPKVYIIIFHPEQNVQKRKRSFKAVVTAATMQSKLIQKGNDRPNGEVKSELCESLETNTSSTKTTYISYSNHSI

SMILES	z-score
C/C(=N\N=C(/N)SC1CC(=O)N(c2ccc(Br)cc2)C1=O)c1cccs1 (centres undefined)	0.0622
COc1ccccc1/C=C/C=N/n1c(-c2cc(C)[nH]n2)n[nH]c1=S	0.0768
CCC(C(=O)Nc1ccccc1-c1ccccc1)c1ccccc1 (centres undefined)	-0.816
O=C(NCc1ccccc1)C1CCCN1S(=O)(=O)c1cccc2cccnc12 (centres undefined)	-0.431
Cn1c(O)c(N=NC(=O)c2cccc(S(=O)(=O)N3CCCCC3)c2)c2ccccc21	-0.947
CCCOc1ccc(N2C(=O)CC(N3CCN(c4nc5ccccc5s4)CC3)C2=O)cc1 (centres undefined)	0.835
O=C(CSc1ncc(-c2ccc(F)cc2)[nH]1)N1CCCCC1	-0.122
O=c1oc(-c2ccccc2Cl)nc2ccsc12	-2.52
COc1cccc(NC(=O)c2ccc(-n3cccn3)nc2)c1	0.109
COc1cc2nc(SCc3ccc(Cl)cc3Cl)n(Cc3cccs3)c(=N)c2cc1OC	-0.0369
COc1ccc(S(=O)(=O)N(CC(N)=O)C2CCCCC2)cc1Cl	-0.0291
CCc1ccc(-c2nn(-c3ccccc3)cc2CSC(=N)N)cc1	0.64
Fc1ccc(NC(=S)NCCc2ccccc2)c(F)c1F	2.71
Cc1ccc(C2C(C(N)=S)=C(N)OC3=C2C(=O)CC(C)(C)C3)cc1 (centres undefined)	-0.111
CCN1CCN(C(=O)CN(CC)S(=O)(=O)c2ccc(Cl)cc2)CC1	0.354
C(=N\n1cnnc1)/c1ccc(N2CCOCC2)cc1	0.265
CCCC(=O)N1CCN(c2ccc(NC(=O)c3cc4ccccc4o3)cc2Cl)CC1	0.0823
COc1ccc(Cn2nnnc2C(c2ccccc2Cl)N2CCC(C(N)=O)CC2)cc1 (centres undefined)	-0.197
CCOc1ccccc1NC(=O)Nc1cc(OC)ccc1OC	-0.67
Cc1ccccc1C(=O)O/N=C/c1c(N2CCOCC2)n(C)c2ccccc12	-0.339
COC(=O)C1=C(C)N(CCc2ccc(OC)c(OC)c2)C(=O)C1	-0.0996
CCOC(=O)CN(C(=O)CNC(=O)c1ccco1)C(C(=O)NC1CCCCC1)c1cccs1 (centres undefined)	0.241
CN(C)c1ccc(-c2noc(C3CCN(S(=O)(=O)c4cccc(C(=O)O)c4)CC3)n2)cc1	-0.634
COC(=O)c1cc(OC)c(OC)cc1NC(=O)c1oc2ccccc2c1C	-0.441
COc1ccc(NC(C)=O)cc1NC(=O)CSc1nnc(-c2ccncc2)n1C	-0.169
CCCOc1ccc(CSc2nc3ccccc3[nH]2)cc1	1.22
Cc1c(C)c2ccc(Oc3ccc([N+](=O)[O-])cc3C(F)(F)F)c(C)c2oc1=O	0.074

SMILES	z-score
CC(=O)c1cccc(NC(=S)NC(=O)c2ccccc2Cl)c1	1.17
COc1cc(NC(=O)CCC2CCCC2)cc(-n2cnnn2)c1	-0.326
COc1cc(C)ccc1OCCOCCOc1ccccc1Br	0.165
C=CCNC(=O)c1ccc(Sc2ccc(C)cc2)c([N+](=O)[O-])c1	0.15
Clc1ccc(OCCCCCN2CCCC2)c(Br)c1	1.1
O=C1c2ccccc2CN1CCNS(=O)(=O)c1ccc(Cl)cc1	-0.0894
c1ccc2sc(N3CCOCC3)nc2c1	0.0591
CCc1ccc2[nH]c(=O)c(CN(Cc3ccccc3)C(=O)Nc3ccccc3OC)cc2c1	0.0431
CC(C)CNC(=O)NC(=O)COc1ncnc2sccc12	-0.218
O=C(C[n+]1ccc(-c2nnc3n2CCC3)cc1)c1ccc(Cl)c(Cl)c1	-0.0551
O=C(N/N=C/c1ccccc1O)/C(=C/c1ccccc1)CCO	-0.0583
CCc1cc(C(c2ccccc2OC)N2CCOCC2)c(NC(=O)c2ccccc2)s1 (centres undefined)	-0.807
O=C(CCN1CCCCC1)NCC1OCCc2ccccc21 (centres undefined)	-0.0974
O=C(CC1(O)C(=O)N(Cc2ccccc2Cl)c2ccccc21)c1ccco1 (centres undefined)	-0.492
Nc1ccc(C#Cc2ccccc2)cc1	0.0818
Cc1cc(Cl)ccc1NC(=O)NC1CCN(S(=O)(=O)c2ccc(F)cc2)CC1	0.136
CCOC(=O)c1ccccc1NC(=O)CN(c1ccccc1C)S(C)(=O)=O	-0.397
CC1(C)Cc2c(C#N)c(OCC(=O)c3ccc(Cl)cc3)nc(-c3ccco3)c2CO1	-0.109
CSC1=N/C(=C\c2ccc(Br)o2)C(=O)S1	active: 3.73
COc1ccc(C2(C(=O)Nc3ccccc3)CCOCC2)cc1	-0.179
CCCCCCC/C(C)=N/NC(=O)CC(=O)NCCc1ccccc1	-0.0928
COc1ccc(C)cc1NC(=O)NC1CCN(Cc2ccccc2)CC1	0.267
Cc1[nH]nc2c1C(c1cccc(OC(=O)N3CCOCC3)c1)C(C#N)=C(N)O2 (centres undefined)	-0.263
CCCCNCCOc1ccccc1-c1ccccc1	0.263
CCCOc1ccc(C2C(C(=O)c3ccc(C)o3)=C(O)C(=O)N2CCN2CCOCC2)cc1OC (centres undefined)	-0.474
Cc1cc(SCc2cc(=O)n3ccsc3n2)nc2ccccc12	-0.273
CCN(Cc1ccccc1)c1ccc(/C=N/NC(=S)NC(C)C)cc1	0.197
